Test results as given in paper PMC9911399, “Two distinct binding modes provide the RNA-binding protein RbFox with extraordinary sequence specificity”.
Numbering of substitutions follows the chain as printed; changes in the protein carry UniProt numbers. Some of the results follow.

B1: GUGUGCC (DNA:RNA)
RNA: GGGAGACCGGAAUUCAGAUUGUCCGUGUGCCUUAAAUCCCGUCGUAGCCACCA
DNA 1: CAATCTGAATTCCGGTCTCCC
DNA 2: TGGTGGCTACGACGGGATT
B2: AUACUCA (DNA:RNA)
RNA: B1 RNA with G25A, G27A, U28C, G29U, C31A
DNA 1: CAATCTGAATTCCGGTCTCCC
DNA 2: TGGTGGCTACGACGGGATT
B3: ACGCCUA (DNA:RNA)
RNA: B1 RNA with G25A, U26C, U28C, G29C, C30U, C31A
DNA 1: CAATCTGAATTCCGGTCTCCC
DNA 2: TGGTGGCTACGACGGGATT
B4: AAAAUUU (DNA:RNA)
RNA: GGGAGACCGGAAUUCAGAUUGUCCAAAAUUUUUAAAUCCCGUCGUAGCCACCA
DNA 1: CAATCTGAATTCCGGTCTCCC
DNA 2: TGGTGGCTACGACGGGATT
B5: GGGAGUU (DNA:RNA)
RNA: B4 RNA with A25G, A26G, A27G, U29G
DNA 1: CAATCTGAATTCCGGTCTCCC
DNA 2: TGGTGGCTACGACGGGATT
B6: CGUAUUU (DNA:RNA)
RNA: B4 RNA with A25C, A26G, A27U
DNA 1: CAATCTGAATTCCGGTCTCCC
DNA 2: TGGTGGCTACGACGGGATT
B7: CAAUGGG (DNA:RNA)
RNA: B4 RNA with A25C, A28U, U29G, U30G, U31G
DNA 1: CAATCTGAATTCCGGTCTCCC
DNA 2: TGGTGGCTACGACGGGATT
B8: CUACAUU (DNA:RNA)
RNA: B4 RNA with A25C, A26U, A28C, U29A
DNA 1: CAATCTGAATTCCGGTCTCCC
DNA 2: TGGTGGCTACGACGGGATT
B9: GUCGUUG (DNA:RNA)
RNA: B4 RNA with A25G, A26U, A27C, A28G, U31G
DNA 1: CAATCTGAATTCCGGTCTCCC
DNA 2: TGGTGGCTACGACGGGATT
B10: CUUUCAG (DNA:RNA)
RNA: B1 RNA with G25C, G27U, G29C, C30A, C31G
DNA 1: CAATCTGAATTCCGGTCTCCC
DNA 2: TGGTGGCTACGACGGGATT
B11: CUUCGUC (DNA:RNA)
RNA: B1 RNA with G25C, G27U, U28C, C30U
DNA 1: CAATCTGAATTCCGGTCTCCC
DNA 2: TGGTGGCTACGACGGGATT
B12: CAGGAGC (DNA:RNA)
RNA: B1 RNA with G25C, U26A, U28G, G29A, C30G
DNA 1: CAATCTGAATTCCGGTCTCCC
DNA 2: TGGTGGCTACGACGGGATT
B13: CGGCGUU (DNA:RNA)
RNA: B4 RNA with A25C, A26G, A27G, A28C, U29G
DNA 1: CAATCTGAATTCCGGTCTCCC
DNA 2: TGGTGGCTACGACGGGATT
B14: UCCGUGA (DNA:RNA)
RNA: B4 RNA with A25U, A26C, A27C, A28G, U30G, U31A
DNA 1: CAATCTGAATTCCGGTCTCCC
DNA 2: TGGTGGCTACGACGGGATT
B15: UACAGUA (DNA:RNA)
RNA: B4 RNA with A25U, A27C, U29G, U31A
DNA 1: CAATCTGAATTCCGGTCTCCC
DNA 2: TGGTGGCTACGACGGGATT
B16: GUAUUUA (DNA:RNA)
RNA: B4 RNA with A25G, A26U, A28U, U31A
DNA 1: CAATCTGAATTCCGGTCTCCC
DNA 2: TGGTGGCTACGACGGGATT
B17: UACCGAC (DNA:RNA)
RNA: B1 RNA with G25U, U26A, G27C, U28C, C30A
DNA 1: CAATCTGAATTCCGGTCTCCC
DNA 2: TGGTGGCTACGACGGGATT
B18: GCACAGU (DNA:RNA)
RNA: B4 RNA with A25G, A26C, A28C, U29A, U30G
DNA 1: CAATCTGAATTCCGGTCTCCC
DNA 2: TGGTGGCTACGACGGGATT
B19: CAAACGA (DNA:RNA)
RNA: B4 RNA with A25C, U29C, U30G, U31A
DNA 1: CAATCTGAATTCCGGTCTCCC
DNA 2: TGGTGGCTACGACGGGATT
B20: GAGGAUC (DNA:RNA)
RNA: B1 RNA with U26A, U28G, G29A, C30U
DNA 1: CAATCTGAATTCCGGTCTCCC
DNA 2: TGGTGGCTACGACGGGATT
B21: AACUAAA (DNA:RNA)
RNA: B4 RNA with A27C, A28U, U29A, U30A, U31A
DNA 1: CAATCTGAATTCCGGTCTCCC
DNA 2: TGGTGGCTACGACGGGATT
B22: AUUCAAA (DNA:RNA)
RNA: B4 RNA with A26U, A27U, A28C, U29A, U30A, U31A
DNA 1: CAATCTGAATTCCGGTCTCCC
DNA 2: TGGTGGCTACGACGGGATT
B23: CACGGUA (DNA:RNA)
RNA: B4 RNA with A25C, A27C, A28G, U29G, U31A
DNA 1: CAATCTGAATTCCGGTCTCCC
DNA 2: TGGTGGCTACGACGGGATT
B24: GGGCGAU (DNA:RNA)
RNA: B1 RNA with U26G, U28C, C30A, C31U
DNA 1: CAATCTGAATTCCGGTCTCCC
DNA 2: TGGTGGCTACGACGGGATT
B25: UCCAGUA (DNA:RNA)
RNA: B4 RNA with A25U, A26C, A27C, U29G, U31A
DNA 1: CAATCTGAATTCCGGTCTCCC
DNA 2: TGGTGGCTACGACGGGATT
B26: CCCAAGU (DNA:RNA)
RNA: B4 RNA with A25C, A26C, A27C, U29A, U30G
DNA 1: CAATCTGAATTCCGGTCTCCC
DNA 2: TGGTGGCTACGACGGGATT
B27: ACUUCGG (DNA:RNA)
RNA: B4 RNA with A26C, A27U, A28U, U29C, U30G, U31G
DNA 1: CAATCTGAATTCCGGTCTCCC
DNA 2: TGGTGGCTACGACGGGATT
B28: UCUAGGU (DNA:RNA)
RNA: B4 RNA with A25U, A26C, A27U, U29G, U30G
DNA 1: CAATCTGAATTCCGGTCTCCC
DNA 2: TGGTGGCTACGACGGGATT
B29: ACCGGCU (DNA:RNA)
RNA: B4 RNA with A26C, A27C, A28G, U29G, U30C
DNA 1: CAATCTGAATTCCGGTCTCCC
DNA 2: TGGTGGCTACGACGGGATT
B30: UGUUAGG (DNA:RNA)
RNA: B1 RNA with G25U, U26G, G27U, G29A, C30G, C31G
DNA 1: CAATCTGAATTCCGGTCTCCC
DNA 2: TGGTGGCTACGACGGGATT
B31: AGGCACG (DNA:RNA)
RNA: B1 RNA with G25A, U26G, U28C, G29A, C31G
DNA 1: CAATCTGAATTCCGGTCTCCC
DNA 2: TGGTGGCTACGACGGGATT

molecular target: T1, RBFOX1 RRM (Homo sapiens, UniProt Q9NWB1 109-208); assay: EMSA; HiTS-Eq, 1 nM pool, 10 min; buffer printed only for the single-RNA assays: 10 mM Tris pH 7.5, 150 mM NaCl, 3.4 mM EDTA, 0.001% NP-40, 30 C; details: tags: His6 N-terminal (pET28a); label: 5' 32P
T1 sequence: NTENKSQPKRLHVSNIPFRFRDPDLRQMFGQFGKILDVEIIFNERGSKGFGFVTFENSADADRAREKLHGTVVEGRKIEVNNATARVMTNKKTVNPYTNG
How it was run: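 Purified RbFox RRM (wild type or mutant) was equilibrated for 10 min in 50 µL with 1 nM of a 5′-radiolabelled pool of RNA with 7 randomized nucleotides, its flanks annealed to DNA oligonucleotides, across increasing protein concentrations. Free RNA was separated by 8% native PAGE, excised, reverse-transcribed, PCR-barcoded and sequenced on an Illumina HiSeq 2500. Relative association constants came from read-count changes of each variant against the control reaction, normalised to the cognate motif.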

Binder | binding signal
B1 | 0.0136 KA relative to UGCAUGU
B2 | 0.00119 KA relative to UGCAUGU
B3 | 0.00104 KA relative to UGCAUGU
B4 | 0.00108 KA relative to UGCAUGU
B5 | 0.0324 KA relative to UGCAUGU
B6 | 0.00693 KA relative to UGCAUGU
B7 | 0.00655 KA relative to UGCAUGU
B8 | 0.00206 KA relative to UGCAUGU
B9 | 0.0222 KA relative to UGCAUGU
B10 | 0.0157 KA relative to UGCAUGU
B11 | 0.0122 KA relative to UGCAUGU
B12 | 0.0107 KA relative to UGCAUGU
B13 | 0.0162 KA relative to UGCAUGU
B14 | 0.00906 KA relative to UGCAUGU
B15 | 0.00635 KA relative to UGCAUGU
B16 | 0.00582 KA relative to UGCAUGU

Binder | binding signal
B17 | 0.00679 KA relative to UGCAUGU
B18 | 0.00714 KA relative to UGCAUGU
B19 | 0.0029 KA relative to UGCAUGU
B20 | 0.0149 KA relative to UGCAUGU
B21 | 0.000329 KA relative to UGCAUGU
B22 | 0.00245 KA relative to UGCAUGU
B23 | 0.00693 KA relative to UGCAUGU
B24 | 0.0127 KA relative to UGCAUGU
B25 | 0.0094 KA relative to UGCAUGU
B26 | 0.0129 KA relative to UGCAUGU
B27 | 0.00412 KA relative to UGCAUGU
B28 | 0.0107 KA relative to UGCAUGU
B29 | 0.00698 KA relative to UGCAUGU
B30 | 0.0114 KA relative to UGCAUGU
B31 | 0.0414 KA relative to UGCAUGU
